The values that follow come from paper PMC4336329 (PLoS ONE, 2015).

Out of some 310,000 compounds screened, about 2,200 (0.71%) showed an effect of 50% or more. Effects have a minus sign here. This is one part of the list.

Sequence of human ether-à-go-go-related gene (hERG) potassium channel (Q12809 whole entry, looked up): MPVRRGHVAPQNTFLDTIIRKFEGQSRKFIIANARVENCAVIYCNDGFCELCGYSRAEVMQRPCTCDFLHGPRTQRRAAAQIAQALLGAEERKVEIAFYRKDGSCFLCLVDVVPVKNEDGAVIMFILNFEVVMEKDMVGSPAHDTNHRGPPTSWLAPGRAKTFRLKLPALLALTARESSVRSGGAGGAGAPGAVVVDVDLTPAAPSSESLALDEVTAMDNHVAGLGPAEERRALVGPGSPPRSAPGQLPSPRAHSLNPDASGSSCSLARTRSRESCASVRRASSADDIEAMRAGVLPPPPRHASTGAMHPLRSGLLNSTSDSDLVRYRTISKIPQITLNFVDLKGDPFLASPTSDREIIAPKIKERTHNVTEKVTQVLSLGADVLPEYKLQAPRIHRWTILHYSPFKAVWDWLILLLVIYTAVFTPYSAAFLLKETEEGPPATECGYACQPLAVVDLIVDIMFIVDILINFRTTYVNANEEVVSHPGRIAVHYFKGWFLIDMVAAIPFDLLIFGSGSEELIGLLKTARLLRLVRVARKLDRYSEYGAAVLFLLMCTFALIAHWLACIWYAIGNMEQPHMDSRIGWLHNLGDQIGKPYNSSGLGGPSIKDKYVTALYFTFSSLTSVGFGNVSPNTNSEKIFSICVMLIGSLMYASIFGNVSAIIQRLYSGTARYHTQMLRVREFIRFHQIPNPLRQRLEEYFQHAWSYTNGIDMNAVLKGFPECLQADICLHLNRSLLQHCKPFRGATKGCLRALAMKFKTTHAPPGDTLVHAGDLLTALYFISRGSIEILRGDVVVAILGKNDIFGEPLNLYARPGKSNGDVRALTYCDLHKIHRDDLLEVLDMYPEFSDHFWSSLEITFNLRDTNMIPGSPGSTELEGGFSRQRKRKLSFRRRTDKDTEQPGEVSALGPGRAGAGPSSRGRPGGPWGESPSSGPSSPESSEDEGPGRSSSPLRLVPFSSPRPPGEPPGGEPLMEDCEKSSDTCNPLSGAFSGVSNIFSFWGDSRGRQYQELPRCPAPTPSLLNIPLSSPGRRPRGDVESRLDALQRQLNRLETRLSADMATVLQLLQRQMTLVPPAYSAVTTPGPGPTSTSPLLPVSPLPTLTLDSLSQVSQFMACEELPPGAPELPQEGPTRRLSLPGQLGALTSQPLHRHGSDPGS

This test concerns the target human ether-à-go-go-related gene (hERG) potassium channel (human, UniProt Q12809). Put plainly: primary screen, population patch clamp on CHO cells stably expressing hERG.
For the compound `CCCCc1ccc(NC(=O)CSc2nc(=O)n(CCN3CCOCC3)c3c2CCC3)cc1`, the “hERG current change (%, negative = inhibition) at 1uM” value is given as -8.28%.
For `O=C(NC1CCSc2ccccc21)c1ccc(C(F)(F)F)cc1` (centres unmarked) the value was 10.3%; for `CCCNC(=O)NC(=O)CSc1nc2ccccc2n1CC(C)C`, 2.61%; for `Cc1[nH]c(=O)[nH]c(=O)c1CSc1nnc([C@H](CC(C)C)NC(=O)OC(C)(C)C)o1`, 9.06%.
In the case of `O=C(COc1ccc2c(c1)CCC2)N1CCN(c2ccccc2F)CC1`, the “hERG current change (%, negative = inhibition) at 1uM” value is 7.44%.
With `CN(CC(=O)Nc1sccc1C#N)C1CCCCC1`, the “hERG current change (%, negative = inhibition) at 1uM” value is reported as 10%.
As for `COc1ccc(NC(=O)c2nn(C34CC5CC(CC(C5)C3)C4)cc2[N+](=O)[O-])cc1`, the “hERG current change (%, negative = inhibition) at 1uM” value amounted to 14.8%.
Then `COCCN(C(=O)C1CCN(C(=O)c2ccccc2C)CC1)c1c(N)n(CC(C)C)c(=O)[nH]c1=O`, with 10.9%; and `CC(=O)NCC1CCCN(Cc2cn(-c3ccccc3F)nc2-c2cc(C)sc2C)C1` (centres unmarked), with 7.3%.
As for `COc1ccc(Nc2nnc(C)c(=O)[nH]2)cc1`, the “hERG current change (%, negative = inhibition) at 1uM” value came to 2.55%.
For `N#Cc1ccc(-c2ccc(F)cc2)nc1Oc1ccc(F)cc1` the value was 9.55%; for `Cc1ccccc1OCCC(=O)OCC(=O)Nc1ccc(C(N)=O)cc1`, 13.5%.
Then `Cc1ccc(C(=O)Nc2ccc(C(=O)N3CCCCC3)cc2)cc1`, with 3.35%; and `Cc1cccc(NC(=O)CN(C)S(=O)(=O)c2ccc(Br)cc2)n1`, with -7.61%; and `CCOC(=O)c1c(NC(=O)CN2CCOCC2)sc2c1CCCC2=O`, with 9.51%.
For `Cc1ccc(C(C)C)cc1OCC(=O)Nc1ccccc1N1CCCC1` the value was 8.72%; for `Cc1oc(-c2ccc(Cl)cc2)nc1CN1CCCC(C(=O)NCc2ccccn2)C1` (centres unmarked), -44.2%; for `Cc1c(NC(=S)NC(=O)c2cc3ccccc3o2)c(=O)n(-c2ccccc2)n1C`, 5.63%.
In the case of `CCC(=O)N1CC2(CC(c3cccc(NC(=O)CC(c4ccccc4)c4ccccc4)c3)=NO2)C[C@H]1C(N)=O` (some centres unmarked), the “hERG current change (%, negative = inhibition) at 1uM” value worked out at 12.7%.
Then `N#Cc1c(-c2ccc(F)cc2)ccnc1N1CCOCC1`, with 13%; and `c1ccc(NCc2nnc3n2CCCCC3)cc1`, with 7.79%.
`CCc1ccc(Nc2nnc(SCC(=O)NCCN3C(=O)CSC3=O)s2)cc1`: the “hERG current change (%, negative = inhibition) at 1uM” value came to 10.2%.
Take `COC(=O)c1[nH]c2ccc(Cl)cc2c1NC(=O)c1ccccc1[N+](=O)[O-]`: the “hERG current change (%, negative = inhibition) at 1uM” value is recorded as 13.1%.
For `Cn1c(=O)c2c(nc(N/N=C/c3ccncc3)n2Cc2ccccc2)n(C)c1=O` the value was 4.79%.
Then `Cc1nc2sc(C(=O)c3ccccc3)c(N)c2c(C)c1C`, with 11.7%; and `COc1ccc(CNC(=O)CCNS(=O)(=O)c2ccc(Br)s2)cc1`, with 11%.
Then `COc1ccc(N2CCN(C(=O)CSc3nnc(-c4ccco4)n3C)CC2)cc1`, with 7.18%; and `O=C(Nc1ccc(OC(F)(F)F)cc1)C1=NCCN1`, with -7.23%.
For `CCCn1cnc2c(oc3ccccc32)c1=O`, the “hERG current change (%, negative = inhibition) at 1uM” value is given as 9.9%.
Then `COC1CCCN(Cc2c(C(=O)N3CCN(C4CCCCC4)CC3)nc3ccccn23)C1` (centres unmarked), with 16.5%.
Consider `Cc1nn(CCOc2ccccc2)c(=O)n1-c1ccccc1`, for which the “hERG current change (%, negative = inhibition) at 1uM” value worked out at 8.84%.
With `CC1(C)CC(=O)C2=C(C1)N(N1CCOCC1)C(N)=C(C#N)C2c1cccs1` (centres unmarked), the “hERG current change (%, negative = inhibition) at 1uM” value was -2.85%.
Then `CCN(CC)C(=O)C1CCCN(c2ccc([N+](=O)[O-])cc2)C1` (centres unmarked), with -10.8%; and `Cc1ccc(C(=S)N2CCN(Cc3ccccc3)CC2)cc1`, with 5.35%.
Regarding `COC(=O)C(NC(=O)c1ccccc1)=C(C)C`, the “hERG current change (%, negative = inhibition) at 1uM” value is reported as -4.15%.
For `COc1ccccc1C(=O)Nc1ccc(-c2nnc(SCC(=O)O)n2C)cc1` the value was 17.6%; for `COCCn1c(SCC(=O)c2ccc3c(c2)OCCO3)nnc1-c1ccoc1C`, 12.5%.
For `C/C(CCc1ccco1)=N/NC(=O)CCC(=O)Nc1ccc(Br)cc1` the value was 11%; for `Cc1cc(C)c(NC(=O)CNC(=O)CNC(=O)C2CCCCC2)c(C)c1`, -2%; for `COc1ccc(Oc2ccc(-c3ccn[nH]3)cc2)cc1`, 2.05%.
For `COc1cccc(C(c2ccccc2)N2C3CCC2CN(S(=O)(=O)c2ccc(F)cc2)CC3)c1` (centres unmarked) the value was -5.01%.
For the compound `CCc1nnc(NC(=O)C2CCCCC2)s1`, the “hERG current change (%, negative = inhibition) at 1uM” value was found to be 4.85%.
For `COCCNC(=O)c1ccc(N2CC3CC(C2)c2cccc(=O)n2C3)c(NC(=O)c2ccc(F)cc2)c1` (centres unmarked) the value was 11.3%; for `CCC(Sc1nc2cc3c(cc2c(=O)n1Cc1ccco1)OCO3)C(=O)Nc1ccccc1OC` (centres unmarked), 0.732%.
Turning to `O=C(COC(=O)c1cc(-c2cccs2)nc2ccccc12)NCc1ccco1`, the “hERG current change (%, negative = inhibition) at 1uM” value was -7.2%.
For `CC(C)[C@H](NC(=O)NC1CCN(Cc2ccccc2)CC1)C(=O)O` the value was 5.52%; for `O=C(CCCO)NNc1c2ccccc2nc2ccccc12`, 2.57%; for `COc1ccc(-c2nc(Cn3c(SCc4cccc(F)c4)nc4ccncc43)c(C)o2)cc1OC`, -6.81%.
On to `Cc1nn(C)cc1-c1cc(C(=O)O)c2ccccc2n1`, for which the “hERG current change (%, negative = inhibition) at 1uM” value is 14%.
For `CCc1cccc(CC)c1NC(=S)NCCc1c(C)[nH]c2ccc(C)cc12` the value was -18.7%.
Then `NNC(=O)CCN1CCN(C(c2ccccc2)c2ccccc2)CC1`, with 4.04%.
For `CC(=O)Oc1c(S(=O)(=O)c2ccccc2)c(C)nn1C(C)(C)C` the value was 1.43%.
For the compound `COc1cccc(N2CCN(C(=O)C3CCCN(S(=O)(=O)c4cnc[nH]4)C3)CC2)c1` (centres unmarked), the “hERG current change (%, negative = inhibition) at 1uM” value was 16.8%.
Then `COc1ccc(/C=N/NC(=O)c2ccn[nH]2)cc1Cn1cc([N+](=O)[O-])cn1`, with 6.72%; and `CC(=O)Nc1ccc(S(=O)(=O)Oc2cccc(N3C(=O)C4CC=CCC4C3=O)c2)cc1` (centres unmarked), with -1.53%.
For `CC(=O)Nc1ccc2nc(SCC(=O)O)sc2c1` the value was 4.65%.
